Measurements from the supplement of paper PMC11417369.
± gives the standard deviation of the averaged measurements. The list shows a part of the results.

Tested on: PfAP2-I AP2 domain 3 (GST-tagged)
Test: gcPBM binding intensity (ln(normalized median fluorescence intensity)); higher = stronger DNA binding
In short: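 After 1 h on an Agilent 4 × 180k array of primer-extended double-stranded 36-bp intergenic genomic probes and negative controls, bound GST-tagged P. falciparum DNA-binding domains were detected with Alexa488 anti-GST antibody and scanned at 488 nm. The domains had been expressed in E. coli, and binding took place in 1× PBS with 1% milk, 0.2 mg/ml BSA, 0.5% salmon testes DNA and 0.03% Triton X-100. Binding intensity is the highest Masliner-normalised natural-log median intensity across replicate spots of either probe orientation.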

| Sequence | gcPBM binding intensity (ln) |
| --- | --- |
| TCAAATATTCATAAATGTACATTTATTTTTCTCCTT [XGTACX_site5827] | 7.75 ± 0.74 |
| TAACTTAATATTAATGCACACAATTTATATATATAT [CACACA_site3903] | 11.3 ± 0.38 |
| AGTAGAATATCCCCTACACACCCAAATAATTTACAA [CACACA_site8339] | 8.22 ± 0.67 |
| TGTAGAAGAACCCATGCATGCAGTATGAAAAAAAAA [TGCATGCA_site907] | 10.1 ± 0.54 |
| AAAAAAAGAAAAAAACGTACATGAAAATTTTTTGTT [XGTACX_site5135] | 7.91 ± 0.71 |
| CTATATAAAAAAATTGCACACATAAATATATACATA [CACACA_site8325] | 8.35 ± 0.11 |
| ATAAATCCCAAAACCTTGCAAGACAACGTTTGATCA [CACACA_negctrl_site1327] | 7.66 ± 0.73 |
| TTCTAAAATTATATAGTGCAATTATTTTATTTTTCT | 9.86 ± 0.014 |
| AAAAAAATAAAACACATACATATATGTATATATATA [GTGCAC_negctrl_site390] | 8.72 ± 0.16 |
| TAAATATATATATAAGTGCATTATATATATATATAA | 11.2 ± 0.57 |
| ATTAATAATTATTATGGTACACATGTAACTACTCTC [XGTACX_site198] | 7.92 ± 0.32 |
| ATCTCTTACATATTCACACACATATAAATAACTACA [CACACA_site6816] | 8.39 ± 0.49 |
| ATATGATAGTTTATATGTACATAAATAAATACATAC [XGTACX_site2917] | 7.92 ± 0.33 |
| AAAGAAAAAAAATAATGTACATATGTATTTGAGAAA [XGTACX_site3571] | 7.88 ± 0.54 |
| AAAAATATGAAAGTAACTAAGTTGTTATTGATAACA [CACACA_negctrl_site1608] | 7.45 ± 0.72 |
| ACGTTAGGCTTATTTGCACACTTGTATTATAATTTT [CACACA_site1317] | 9.96 ± 0.31 |
| ATATTATCACAAGGTGGTACACAAAAAAAAAAAAAA [XGTACX_site8224] | 8.625 ± 0.049 |
| TACTTTCACATTAAATGTACGTATAGTTTCATTCTT [XGTACX_site8528] | 8.02 ± 0.3 |
| ATATTAAAAATATATACACACATATATATAAATATA [CACACA_site2257] | 7.51 ± 0.37 |
| ATAAATATGGAGCACACACACATAAACATACAGATA [CACACA_site4395] | 8.34 ± 0.33 |
| TATATTTAAGTACATAAATAAGCCCATTTACATACA [CACACA_negctrl_site1224] | 7.84 ± 0.14 |
| TTTGGAGAATTCATAGTGCATTTATTTATTGTTAAT | 10.5 ± 0.47 |
| TAAGTGATCGCATAATGTACATATTATTTATTATTT [XGTACX_site3061] | 7.64 ± 0.28 |
| CATACATACATACATACACACATATATAAATATATG [CACACA_site7028] | 8.94 ± 0.57 |
| GGAAGGATATAACATACACACACACCCATATATATA [CACACA_site9376] | 8.46 ± 0.73 |
